Results reported in PubChem BioAssay AID2060605 (Molecular Pharmacology Branch, DTP, NCI, 2025).
A number of entries come with more than one value. This is not the full list of results. There may be further records. Values that stand side by side repeat one measurement (runs, samples, wells, individuals or studies). Brackets with × say how often a value occurs here.

Test system: 947758-054-R-J2-PDC spheroid growth, percent test/control
Test: Anticancer human tumor 947758-054-R-J2-PDC patient-derived colon adenocarcinoma cell line growth inhibition [CLK]
Conditions: for viability, T/C: stronger effect = lower value, spheroids with HUVEC and MSC
Text: A high-throughput screen of multi-cell type tumor spheroids was designed to identify active combinations of […] and targeted small molecules. Complex spheroids include a stromal component modeled by human endothelial cells (HUVEC) and fibroblasts modeled by human mesenchymal stem cells (MSCs). The concentration ranges selected for each drug and investigational agent were based upon clinically achievable concentrations if the clinical Cmax of the agent was known.
Compounds. The drugs and investigational agents: cirtuvivint (SM08502; NSC835563), CC-671 (NSC850746), vemurafenib (NSC761431), tapotoclax (NSC804041), sotorasib (NSC818433), adagrasib (NSC831453), MRTX-1133 (NSC836407), BAY2416964 (NSC825713), copanlisib (NSC816437), inavolisib (NSC800729), abemaciclib (NSC768073), osimertinib (NSC779217), entinostat (NSC756642), eltanexor (KPT-8602, NSC794443), venetoclax (NSC766270), ceralasertib (NSC777638), bortezomib (NSC756655), olaparib (NSC753686), talazoparib (NSC767125), alisertib (NSC759677), peposertib (NSC802822), gemcitabine (NSC613327), 5-fluorouracil (NSC19893), SN-38 (NSC673596), oxaliplatin (NSC266046), paclitaxel (NSC125973), and doxorubicin (NSC123127), were obtained from the National Cancer Institute (NCI) Developmental Therapeutics Program Chemical Repository. The FDA-approved anticancer drug set is available from the Developmental Therapeutics Program at https://dtp.cancer.gov/organization/dscb/obtaining/available plates.htm. […] The stock solutions were prepared in dimethyl sulfoxide (DMSO, Sigma-Aldrich, St. Louis, MO, cat. D2650), except for the platinum complexes which were prepared in saline (Quality Biological, Gaithersburg, MD, cat. 114-055-101), at 800-fold the tested concentration and stored at -70 degrees C prior to their use. All drugs and investigational agents were tested over a range starting from a high concentration at or near the clinical Cmax and decreasing in half-log increments. If the clinical Cmax for an agent had not been determined, the highest concentration tested was 10 microM.
Cell Culture. All cells were maintained in an incubator at 37 degrees C and 5% CO2 with 95% humidity. The PDC lines were cultured according to standard operating procedures established by the NCI PDMR. Briefly, all PDCs were thawed and cultured in Matrigel-coated flasks prepared with a working solution of 1X Ham's F-12 nutrient mix, without supplementation (Invitrogen, Waltham, MA, cat. 11765054), 100 U/mL penicillin-streptomycin (Invitrogen, cat. 15140122), and 2.5% Matrigel (Corning Inc., Corning, NY, cat. 354248) for the first three passages. The 947758-054-R-J2-PDC line was cultured in 6B/Colon 1A media, which includes advanced DMEM/F-12 (Thermo Fisher Scientific, cat. 12634028), 10 mM HEPES (Thermo Fisher Scientific, cat. 15630080), 1X GlutaMAX supplement (Thermo Fisher Scientific, cat. 35050061), 0.1 mg/mL primocin (InvivoGen, cat. ant-pm-2), 10% defined fetal bovine serum, heat inactivated (HyClone Laboratories Inc., cat. SH30070.03HI), 1.25 mM N-Acetyl-L-cysteine (Sigma-Aldrich, cat. A9165), 10 mM nicotinamide (Sigma-Aldrich, cat. N0636), 1X B-27 supplement (Thermo Fisher Scientific, cat. 17504044), 1X N-2 supplement (Thermo Fisher Scientific, cat. 17502048), and 10 microM Y-27632 dihydrochloride (Tocris Bioscience, cat. 1254). […]
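Also: spheroids exposed to compounds for one week before readout.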

SMILES | viability, T/C (compound alone 0.0316 µM) | viability, T/C (compound alone 0.1 µM) | viability, T/C (compound alone 0.316 µM) | IC50 (compound alone, run of 09/19/2023)
CN1CCN(c2cc(C(=O)Nc3cc4cc(-c5cnn(C)c5)ccc4cn3)ccn2)CC1 | 125, 119, 110, 105, 122 (2×), 154, 113, 133, 106, 115, 100% | 157, 139, 167, 156, 178, 159, 147, 155, 176, 183, 137, 170% | – | –
CNC(=O)c1ccc(Nc2nc(OC3CCCC3)c3c(-c4ccc5nc(C)oc5c4)c[nH]c3n2)c(OC)c1 | – | 57.4, 65.5, 62.7, 64.5, 61.9, 66, 42.8, 68.8, 61.7, 38, 67.9, 63.8% | 76.1, 73.5, 79.4, 89.7, 92.9, 81.1, 70, 81.6, 97.6, 77.2, 66.2, 74% | 893 nM, 1.72 µM, 1.56 µM, 805 nM, 6.76 µM, 2.08 µM, 493 nM, 2.92 µM, 3.9 µM, 3.92 µM, 1.17 µM, 959 nM
